About 3,600 (1.6%) of roughly 230,000 compounds were called active. The shares of active, inactive and inconclusive entries below differ from those in the screen. Calls come from the whole dose curve; as a rule, active = well fitted inhibition curve with a large enough effect (not every such curve was filed as active); inconclusive = small, poorly fitted or top-dose-only effect, or another doubt; inactive = no such curve, though single readings can be large or run the other way. A potency beside an inconclusive call is a rough fit, not a confirmed value.
Biological target: Lysine-specific demethylase 4E (Homo sapiens) (UniProt B2RXH2)
Test: qHTS Assay for Inhibitors of Human Jumonji Domain Containing 2E (JMJD2E)
Conditions: JMJD2E catalytic domain, FDH-coupled NADH fluorescence (FDH is formaldehyde dehydrogenase); series mostly up to 57.1 µM
Note: nearly all actives have a fitted effect of over 50% in size.
Potency is the fitted concentration of half-maximal effect; tags give direction and shape of the fitted curve.

UniProt B2RXH2, sequence (B2RXH2 whole entry, looked up, the tested form may be a part): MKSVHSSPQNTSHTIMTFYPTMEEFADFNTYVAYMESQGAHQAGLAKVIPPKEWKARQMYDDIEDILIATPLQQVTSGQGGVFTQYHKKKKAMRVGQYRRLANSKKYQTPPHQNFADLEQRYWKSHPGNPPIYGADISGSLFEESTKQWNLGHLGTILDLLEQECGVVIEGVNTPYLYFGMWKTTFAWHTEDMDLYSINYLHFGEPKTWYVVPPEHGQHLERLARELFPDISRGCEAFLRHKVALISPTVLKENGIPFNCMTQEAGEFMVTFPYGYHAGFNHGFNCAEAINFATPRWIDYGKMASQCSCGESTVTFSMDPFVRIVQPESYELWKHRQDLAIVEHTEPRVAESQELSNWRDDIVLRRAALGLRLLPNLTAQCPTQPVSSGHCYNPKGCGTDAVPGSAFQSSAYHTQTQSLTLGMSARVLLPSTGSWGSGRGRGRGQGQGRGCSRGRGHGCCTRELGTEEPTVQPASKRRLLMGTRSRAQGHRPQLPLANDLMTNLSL

Row | SMILES | Potency
1 | COc1ccc2c(c1)C(C)=CC(C)(C)N2C(=O)Nc1ccccc1 | inconclusive: 25.1 µM [inhibitor, partial curve]
2 | Cc1cc(N2CCN(C)CC2)nc2ccc(NC(=S)N3CCCCC3)cc12 | inconclusive: 15.8 µM [inhibitor, partial curve]
3 | Cc1cc([N+](=O)[O-])c(C)cc1-c1ccc(/C=N/NC(=O)c2cccnc2)o1 | inactive
4 | CC1=C(C#N)c2nc(N)c(C#N)c(C)c2/C1=C\c1ccc(C)cc1 | inconclusive: 35.5 µM [inhibitor, partial curve]
5 | CCN1C(=O)/C(=C/C2=Cc3ccccc3OC2C)SC1=S (stereo not given) | inactive
6 | C[C@H](NS(=O)(=O)c1ccc(Cl)c(Cl)c1)C(=O)OCc1cc(=O)n2cc(Br)ccc2n1 | inconclusive: 39.8 µM [inhibitor, single point]
7 | Cc1nc(N2CCOCC2)c2nc(-c3ccccc3)n(C(C)CN(C)C)c2n1 (stereo not given) | inconclusive: 35.5 µM [inhibitor, partial curve]
8 | O=C(NP(=O)(N1CCOCC1)N1CCOCC1)C1=C(N2CCOCC2)/C(=C\c2ccccc2)CC1 | inactive
9 | CC(C)Oc1ccc(C(=O)Nc2cccc3cccnc23)cc1 | inconclusive: 39.8 µM [inhibitor, single point]
10 | CCC1(C)Nc2ccccc2C(=O)N1O (stereo not given) | inconclusive: 39.8 µM [inhibitor, single point]
11 | Cc1c(CN2CCC(CO)(CCOc3ccccc3)CC2)[nH]c2ccc(Cl)cc12 | inconclusive: 39.8 µM [inhibitor, single point]
12 | O=C(CSC1CC(=O)N(CCc2ccccc2)C1=O)Nc1ccc(Br)cc1 (stereo not given) | inactive
13 | O=[N+]([O-])c1ccc(/C([O-])=C(/C(=S)NCc2ccco2)[n+]2ccccc2)cc1 | active: 14.1 µM
14 | COC(=O)[C@@H]1C[C@@]2(O)[C@H](O)[C@H](O)[C@H](O)C[C@H]2N1Cc1ccc(N2CCN(C)CC2)cc1 | inconclusive: 31.6 µM [inhibitor, single point]
15 | CCOC(=O)c1sc(C)c(C(=O)NCCCN2CCOCC2)c1N | inconclusive: 31.6 µM [inhibitor, partial curve]
16 | CCOCCCNC(=O)c1cc2c(=O)n3cccc(C)c3nc2n1C | inconclusive: 14.1 µM [inhibitor, partial curve]
17 | CCOC(=O)CCc1nc2ccccc2[nH]c1=O | inconclusive: 31.6 µM [inhibitor, partial curve]
18 | CC1=CC2=NC(=O)CC(C)(C(=O)N(CC(=O)NC(C)C)C3CCCC3)N2C=C1 (stereo not given) | inconclusive: 12.6 µM [inhibitor, partial curve]
19 | CCOC(=O)C1=C[C@]2(CC)CCCN3CCc4c(n1c1ccccc41)[C@@H]32 | inconclusive: 39.8 µM [inhibitor, single point]
20 | c1ccc(CNc2nc3ccccc3n2CCN2CCOCC2)nc1 | inconclusive: 39.8 µM [inhibitor, single point]
21 | CN(C)c1cccc2c(C=C(C#N)C#N)ccc(N(C)C)c12 | inconclusive: 39.8 µM [inhibitor, single point]
22 | Cc1noc(C)c1COC(=O)c1ccccc1NC(=O)c1ccco1 | inconclusive: 28.2 µM [inhibitor, single point]
23 | CCOC(=O)c1c(C)oc2c(CC(=O)c3ccccc3)c(Cl)c(O)c(O)c12 | inconclusive: 17.8 µM [inhibitor, partial curve]

Row | SMILES | Potency
24 | CNc1cccccc1=S | active: 25.1 µM
25 | CCOP(=O)(OCC)c1nc(Cc2ccccc2)oc1NCc1ccccc1 | inactive
26 | CC(C)(C)OC(=O)NCCc1nnc(SCc2ccc(Cl)cc2Cl)o1 | inconclusive: 28.2 µM [inhibitor, single point]
27 | COC(=O)C1=C(C)N(C)C(=O)NC1c1ccc([N+](=O)[O-])o1 (stereo not given) | inconclusive: 39.8 µM [inhibitor, single point]
28 | O=C(Cc1ccccc1)NC(=S)Nc1cccc(C(F)(F)F)c1 | inconclusive: 39.8 µM [inhibitor, single point]
29 | Nc1cc(C(F)(F)F)ccc1N1CCOCC1 | inconclusive: 28.2 µM [inhibitor, single point]
30 | COc1ccccc1/C=C/C=C1\Oc2c(ccc(O)c2CN(C)C)C1=O | inconclusive: 31.6 µM [inhibitor, single point]
31 | Cc1ccc(C(C[N+](=O)[O-])c2c(C)cc3ccccn23)cc1 (stereo not given) | active: 25.1 µM
32 | N#Cc1cc2cc3c(cc2nc1N1CCCCC1)OCCO3 | inconclusive: 14.1 µM [inhibitor, partial curve]
33 | CN(C)C=Nc1c(C(=O)c2ccccc2)sc2nccc(N(C)C)c12 | inconclusive: 39.8 µM [inhibitor, single point]
34 | CN1CCN(C(=O)c2c(O)c3cccc4c3n(c2=O)CCC4)CC1 | inconclusive: 25.1 µM [inhibitor, partial curve]
35 | O=C(c1cc2n(n1)C(C(F)(F)F)CC(c1ccco1)N2)N1CCc2ccccc2C1 (stereo not given) | inactive
36 | CCOC(=O)Cc1c(C)c2c(C)nn(-c3ccccc3)c2oc1=O | inconclusive: 35.5 µM [inhibitor, partial curve]
37 | O=C(NCc1cccs1)c1cccnc1SCCS(=O)(=O)c1ccc(C(F)(F)F)cn1 | inactive
38 | CCOC(=O)N/N=C/c1cn(CCCOc2ccc(C)cc2)c2ccccc12 | inactive
39 | COc1ccccc1/C=C/C=N/NC(=O)CN1CCN(Cc2ccccc2)CC1 | inconclusive: 22.4 µM [inhibitor, partial curve]
40 | Cc1ccc(Cl)c(OCC(=O)NCc2ccco2)c1 | inactive
41 | Cc1cccc(SCc2noc(C(=O)NCC3CCCO3)c2C(=O)O)c1 (stereo not given) | inactive
42 | CSc1nc2sc(-c3ccccc3)cc2c(=O)n1N | inconclusive: 5.01 µM [inhibitor, single point]
43 | COc1ccc(OC)c2sc(N(CCN(C)C)C(=O)c3cc(Cl)sc3Cl)nc12 | inactive
44 | O=C1NC(=Nc2ccc(O)cc2)S/C1=C/c1ccco1 | inactive
45 | O=C(N/N=C/c1ccccn1)c1[nH]c2ccc([N+](=O)[O-])cc2c1-c1ccccc1 | inconclusive: 39.8 µM [inhibitor, single point]

Reference: PubChem BioAssay AID2147 (National Center for Advancing Translational Sciences (NCATS), 2009)
